# Data from article PMC6919601, “Identification of Plasmodium dipeptidyl aminopeptidase allosteric inhibitors by high throughput screening” (PLoS ONE, 2019).
# Screen size: about 110,000 compounds; about 230 (0.21%) showed an effect of 50% or more. The list shows a part of the results.
# Molecular target: DPAP1 (Plasmodium falciparum, UniProt Q8IIJ9)
# Assay: primary screen, percent inhibition; read by cleavage of a fluorogenic dipeptide substrate; higher = more effect of the substance
# Design: species or system P. falciparum D10 trophozoite lysates; single well
# 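Further: 30 min substrate incubation versus DMSO and 10 µM JCP410 controls.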
# Chain of DPAP1 (Q8IIJ9 whole entry, looked up): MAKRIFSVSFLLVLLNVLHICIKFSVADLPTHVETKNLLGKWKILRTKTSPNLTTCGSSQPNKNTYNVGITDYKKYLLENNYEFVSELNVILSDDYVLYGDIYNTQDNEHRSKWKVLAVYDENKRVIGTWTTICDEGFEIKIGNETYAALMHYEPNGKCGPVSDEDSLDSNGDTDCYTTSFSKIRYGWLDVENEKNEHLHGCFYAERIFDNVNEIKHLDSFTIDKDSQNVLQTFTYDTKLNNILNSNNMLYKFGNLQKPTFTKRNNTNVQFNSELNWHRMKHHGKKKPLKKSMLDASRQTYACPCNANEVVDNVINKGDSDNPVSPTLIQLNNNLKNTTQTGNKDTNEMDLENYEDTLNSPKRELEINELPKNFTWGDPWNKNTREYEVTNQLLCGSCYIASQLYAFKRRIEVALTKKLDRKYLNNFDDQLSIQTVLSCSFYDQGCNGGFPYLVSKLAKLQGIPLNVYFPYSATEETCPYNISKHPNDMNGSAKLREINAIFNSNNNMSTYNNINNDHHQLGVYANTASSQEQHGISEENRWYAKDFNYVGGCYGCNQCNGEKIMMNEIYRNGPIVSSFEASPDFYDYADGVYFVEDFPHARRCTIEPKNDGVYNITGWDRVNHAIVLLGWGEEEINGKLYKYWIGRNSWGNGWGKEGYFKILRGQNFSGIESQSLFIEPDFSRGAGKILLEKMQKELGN
row,Structure (SMILES),% Inhibition @ 10 uM [%]
1,CCCc1cc(=O)n(CC)c(NC2CCCCC2)n1,-0.575
2,O=C(O)c1ccc2c(c1)C(=O)N(c1ccc([N+](=O)[O-])cc1)C2=O,-6.88
3,CC(=O)NCCc1ccc(S(=O)(=O)N(C)C)cc1,-1.33
4,NC(=O)c1ccc(-n2nnnc2Oc2ccc(F)cc2)cc1,2.57
5,CNS(=O)(=O)c1ccc(NC(=O)C23CC4CC(C2)CC(n2cnc(Br)n2)(C4)C3)cc1,2.09
6,N#Cc1cnn2c(NC3CCCCCC3)c(-c3ccccc3F)[nH]c12,6.89
7,COc1ccc(C2C=C(c3ccc(OC)c(OC)c3)Nc3ncnn32)cc1 (stereo not shown),-3.26
8,COc1ccc(C2C(C(=O)c3ccc(C)o3)=C(O)C(=O)N2CC2CCCO2)cc1OC (stereo not shown),-9.12
9,COCCNC(=O)c1cc(-c2ccccc2F)no1,-1.19
10,O=C(C1=C(O)/C(=C/c2ccccc2)CCC1)C(F)(F)F,-0.169
11,CCN(CC)S(=O)(=O)c1ccc(C(=O)Nc2c3c(nn2C(C)(C)C)CS(=O)(=O)C3)cc1,-0.195
12,CC(=O)Nc1ccc(S(=O)(=O)N2CCN(C(=O)N3CCCC3)CC2)cc1,-1.61
13,Cc1ccc(CN2c3ccsc3C(O)=C(/C=N/Cc3cccnc3)S2(=O)=O)cc1,-4.41
14,CCC(C(=O)Nc1ccc(OC)cc1)c1ccccc1 (stereo not shown),3.7
15,OC1CCN(Cc2ccccc2C(F)(F)F)CC1,-1.92
16,O=C(O)C1CSC(C(=O)O)CC(c2ccccc2)=N1 (stereo not shown),-1.8
17,CCc1cccc(C)c1NC(=O)Cc1ccc(OC)cc1,-10.3
18,CCN1CCC(N2CCC(C(N)=O)CC2)CC1,-7.35
19,COC(=O)c1sccc1NC(=O)C1CCCN(c2ncnc3c2nc2n3CCCCC2)C1 (stereo not shown),8.64
20,CCc1ccc(NC2=CC(=O)CC(c3ccc(OC)c(OC)c3)C2)cc1 (stereo not shown),-0.25
21,N#CC1=C(N)Oc2c(ccc3ccccc23)C1c1cccc(F)c1 (stereo not shown),-2.21
22,COc1ccc(CCn2c(C)nc(=O)c(-c3ccccc3)c2C)cc1OC,-2.6
23,CCN(CC)C(=O)C1CCCN(Cc2cccc(C)c2)C1 (stereo not shown),-1.92
24,c1ccc(CN2CCN(Cc3ccccc3)CC2)cc1,6.02
25,CCOC(=O)c1c(C)c(C(=O)NC2CC(C)CC(C)(C)C2)c(C)n1CC (stereo not shown),-1.88

row,Structure (SMILES),% Inhibition @ 10 uM [%]
1,CCn1c(CCCNC(=O)c2cc(OC)c(OC)c(OC)c2)nc2ccccc21,-2.01
2,CCC(Sc1nc2c(sc3ccccc32)c(=O)n1CCCOC)C(=O)NCc1ccco1 (stereo not shown),6.65
3,O=C(CCn1ccc2cc(S(=O)(=O)N3CCCCC3)ccc21)N1CCc2ccccc2C1,2.31
4,CCOC(=O)N1CCN(c2c(NCCN(C)C)c(=O)c2=O)CC1,4.35
5,CC1=C(C(=O)Nc2ccccc2)C(c2ccco2)C(C#N)=C(SCC(=O)Nc2ccc(C)cc2C)N1 (stereo not shown),1.57
6,Cn1cc(C(=O)NC2C3CC4CC(C3)CC2C4)cn1 (stereo not shown),3.24
7,Cn1nnnc1SCCNCc1ccc(-c2ccccc2F)o1,-1.71
8,Cc1cccc(C)c1OCc1nnc(CCc2ccccc2)o1,-7.15
9,O=C(c1cccc(F)c1)N1CCN(C(=O)c2cc(-c3ccc(F)cc3)no2)CC1,2.46
10,COc1ccc(C2C(C#N)=C(N)N(c3ccc(F)cc3)C3=C2C(=O)CC(C)(C)C3)cc1O (stereo not shown),0.76
11,CC1(C(=O)Nc2nc3ccccc3s2)CC1(Br)Br (stereo not shown),5.7
12,CC12CN3CC(C)(CN(C1)C3c1cn(Cc3ccccc3)c3ccccc13)C2O (stereo not shown),-8.95
13,CCNC(=O)C(=O)NCc1ccccn1,3.82
14,Cc1cccc(-c2cc(C(=O)NCc3ccncc3)c3ccccc3n2)c1,-3.18
15,O=C(Cc1ccccc1Cl)N1CCC(c2nc(O)c3nnn(Cc4cccs4)c3n2)CC1,-2.92
16,CCCCc1[nH]nc2c1C1(CCN(C(=O)OC(C)(C)C)CC1)C(C#N)=C(N)O2,2.01
17,COc1ccc(C(=O)Nc2ccc(-c3nc4cc(Cl)ccc4o3)c(O)c2)cc1OC,1.92
18,COC(=O)c1ccc(C(c2c(C)n(C)n(-c3ccccc3)c2=O)c2c(C)n(C)n(-c3ccccc3)c2=O)cc1,5.29
19,Cc1nn(C(C)C(=O)NCCCN(C)Cc2ccccc2)c(=O)c2nn(-c3ccccc3)c(C)c12 (stereo not shown),-1.05
20,O=C(Nc1c(C(=O)N2CCCCC2)cnn1-c1ccccc1)c1ccccc1,-3.05
21,O=C(O)C1CSC(c2ccc(OCc3ccc(F)cc3)cc2)N1 (stereo not shown),1.64
22,CC1(C)CNC(=O)c2sc(NC(=O)c3ccccc3Cl)nc2C1,1.62
23,O=C(c1ccc(Cn2cc(Cl)cn2)o1)N1N=C(C(F)F)CC1(O)C(F)F (stereo not shown),-0.105
24,Cc1cccn2c(=O)c(/C=C(\C#N)C(=O)NCCc3ccccc3)c(Oc3ccccc3)nc12,-5.1
25,O=C(CN1CCN(c2ccccc2)CC1)Nc1ccc(Br)cc1,-6.47

row,Structure (SMILES),% Inhibition @ 10 uM [%]
1,Cn1nc(-c2ccccc2F)c2cc(C(=O)NC3CCN(Cc4ccccc4)CC3)sc21,-3.23
2,CCN(Cc1ccccc1)C(=O)Cn1cnc2c1c(=O)n(C)c(=O)n2C,-5.15
3,O=C(NCc1ccc(Cl)cc1)c1cc2c(s1)CSC2,0.44
4,COc1ccc2ccccc2c1CN1CC2(C)CC1CC(C)(C)C2 (stereo not shown),3.48
5,Cc1ccc(CN2C(=O)c3oc4ccccc4c(=O)c3C2c2ccc(O)cc2)cc1 (stereo not shown),-1.33
6,CC(=O)N(CCN(C(C)=O)c1ccccc1)c1ccccc1,-7.1
7,O=C(CSc1nc2nncc-2c(O)n1-c1ccc(Cl)cc1)NCc1cccs1,3.04
8,COc1ccc(C2NC(C(=O)O)CS2)cc1CN1CCOCC1 (stereo not shown),0.408
9,Cn1c(=O)[nH]c(=O)c2c1nc(N=Nc1c(O)[nH]c3ccccc13)n2CC(O)COc1ccccc1 (stereo not shown),4.95
10,SC1N=C(c2ccccc2)C=C(c2ccccc2)N1 (stereo not shown),-3.69
11,COC(=O)c1oc2ccccc2c1O,46
12,CN(C)c1ccc(C(O)(c2ccc(N(C)C)cc2)C2CN3CCC2CC3)cc1 (stereo not shown),1.7
13,O=C(CCCc1nc(-c2ccccc2Cl)no1)NCc1ccco1,-4.75
14,COC(=O)c1cc(=O)c2ccc(OC)cc2o1,2.22
15,COc1cccc2cc(-c3nc(-c4cccnc4)no3)c(=O)oc12,2.46
16,COc1ccc(Cl)cc1-c1noc(COc2ccccc2)n1,2.62
17,O=C(O)COc1ccccc1/C=C1\SC(=O)N(Cc2ccc(F)cc2)C1=O,-3.09
18,COC(=O)c1ccc(C2SCC(=O)N2c2nc3ccccc3s2)cc1 (stereo not shown),1.91
19,Cc1c(C)n(C)c2ccc(C(=O)Nc3cccc(Cl)c3)cc12,-1.28
20,COc1cc2c(cc1OC)C(c1ccccc1OC(C)C)CC(=O)N2 (stereo not shown),2.45
21,O=C(OCc1ccccn1)c1ccc(COc2cccc3ccccc23)cc1,0.413
22,CC(C)(C)c1ccc(S(=O)(=O)NCC(=O)Nc2sc3c(c2C#N)CCC3)cc1,-2.77
23,CCn1c(C)c(CCC(=O)NCCCN2CCCC2=O)c(=O)n2nc(-c3ccccc3OC)cc12,-8.02
24,C=CCc1ccccc1OCCOc1c(Cl)cc(/C=C2/C(=N)N3OC(C)=CC3=NC2=O)cc1OC,5.21
25,COc1ccc(C(=O)Nc2ccc(S(=O)(=O)NC(C)=O)cc2)cc1OC,-5.85

row,Structure (SMILES),% Inhibition @ 10 uM [%]
1,CSc1nc(C)cc(OCC(=O)N2CCOCC2)n1,-7.71
2,Cc1nc2sccn2c(=O)c1S(=O)(=O)NCc1ccccc1Cl,-3.44
3,O=c1c2cn[nH]c2[nH]c(=S)n1-c1cccc2ccccc12,31.4
4,CC1(C)CC(=O)C2=C(C1)c1c(ccc3ccccc13)NC2c1ccc(O)cc1 (stereo not shown),13.8
5,Cc1ccc(N2C(=O)c3ccc(C(=O)O)cc3C2=O)cc1Cl,-1.95
6,CS(=O)(=O)N(CC(=O)Nc1cccc(C(F)(F)F)c1)c1ccc(Cl)cc1,-7.2
7,CC1CN(S(=O)(=O)c2ccc(-n3cnnn3)cc2)CC(C)O1 (stereo not shown),5.43
8,Cc1cc(Br)cc2c1[nH]c1nc3ccccc3nc12,-0.403
9,O=C(Nc1ccc(Oc2ccccc2)cc1)C1CCCO1 (stereo not shown),0.812
10,O=C(CSc1nnc2c(n1)[nH]c1ccccc12)Nc1nccs1,-10.6
11,C/C(=N\C1CC(C)(C)NC(C)(C)C1)c1c(C(F)(F)F)nn(-c2nc3ccccc3s2)c1O,2.94
12,Cc1nn(CCCC(=O)NC2CCN(Cc3ccccc3)CC2)c(=O)c2c1sc1ccccc12,-5.1
13,Cc1nn(Cc2noc(C(=O)NCC(O)c3ccccc3)n2)c(C)c1Br (stereo not shown),7.16
14,COc1ccc(-c2c(O)c(C#N)c(-c3ccccc3)n(-c3ccc(OC)cc3)c2=O)cc1,-0.25
15,CCOc1ccccc1N(CC(=O)N1CCN(c2ccccc2)CC1)S(C)(=O)=O,-0.496
16,COc1cccc(OC)c1C(=O)Nc1cc(Cl)cc(Cl)c1,0.273
17,COc1cc(NC(=O)C2CC(=O)N(c3ccc(F)cc3)C2)ccc1Br (stereo not shown),-1.22
18,CC1CCCCN1S(=O)(=O)c1ccc(C(=O)Nc2cccc(Cl)c2)cc1 (stereo not shown),0.992
19,CCO/C(O)=C1/C(C)=Nc2ncnn2C1c1ccccc1OCC (stereo not shown),0.0842
20,CCOC(=O)c1c(NC(=O)c2cccnc2)sc2c1CCC(C(C)(C)C)C2 (stereo not shown),-5.08
21,NC1C2CN3CCN(C2)CC1(Cc1ccccc1)C3 (stereo not shown),-5.46
22,COc1cc(NS(=O)(=O)c2ccc(NC(=O)c3ccccc3C)cc2)nc(OC)n1,1.72
